From PubChem BioAssay AID485344 (National Center for Advancing Translational Sciences (NCATS), 2010) come the findings set out here.

The structures appear in SMILES notation. Out of some 340,000 compounds screened, about 6,900 (2%) were called active. Cut-off read from the data, not from the text of the source: active = inhibition above about 30%; inactive = below that, where a call was filed. This is a selection; strong and weak results do not stand in their true shares. Where no call is shown, the source filed none.

The term inhibition denotes the relative decrease from the control value, in per cent.

For this assay, the target named is D(2) dopamine receptor (Homo sapiens) (UniProt P14416). Nature of the assay: HTS Assay for Allosteric Antagonists of the Human D2 Dopamine Receptor: Primary Screen for Antagonists. Note: 0% is about no effect. Conditions: HEK293 TREx D2 cells, calcium flux, dopamine EC80; at 10 µM; stronger effect = higher value. A digest of the protocol: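 Calcium mobilization kinetics were recorded at 1 s intervals in tetracycline-induced HEK293 T-REx D2 cells, first for 180 s after compound addition and then 180 s after EC80 dopamine.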
UniProt P14416, sequence (P14416 whole entry, looked up): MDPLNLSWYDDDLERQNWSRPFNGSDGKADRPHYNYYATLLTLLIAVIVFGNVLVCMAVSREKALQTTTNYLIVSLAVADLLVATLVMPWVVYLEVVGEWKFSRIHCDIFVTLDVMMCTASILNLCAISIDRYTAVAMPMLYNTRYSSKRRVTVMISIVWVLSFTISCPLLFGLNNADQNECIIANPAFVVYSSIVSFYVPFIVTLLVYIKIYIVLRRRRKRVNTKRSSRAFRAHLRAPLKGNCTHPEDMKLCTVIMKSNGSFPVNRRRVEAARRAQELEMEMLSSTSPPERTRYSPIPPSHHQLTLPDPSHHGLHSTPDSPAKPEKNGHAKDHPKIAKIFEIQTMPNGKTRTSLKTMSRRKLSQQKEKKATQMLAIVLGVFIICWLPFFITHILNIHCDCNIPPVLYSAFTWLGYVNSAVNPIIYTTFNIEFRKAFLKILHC
(In general: Calcium assays in cells follow changes in intracellular calcium, usually with a dye or a luminescent sensor.)
With `COc1ccc(CNC(=O)CS(=O)Cc2nc(-c3ccc(OC)c(OC)c3)oc2C)cc1` (centres undefined), the inhibition was -9.56%.
In the case of `COc1ccc(Cn2c(=O)[nH]c3cc(C(=O)NCCC(C)C)ccc3c2=O)cc1` it was 1.4%; in that of `Cc1cc(C)c(NC(=O)CSc2nc3ccccc3c3nc(CCn4cncc4C)nn23)c(C)c1`, 5.42%.
On to `CN1CCN(c2ccc([N+](=O)[O-])c(Sc3nc4ccccc4[nH]3)c2)CC1`, for which the inhibition is active: 88.9%.
Regarding `O=S(=O)(c1ccc(Cl)cc1)c1nc(-c2ccccc2Br)oc1NCc1ccccc1`, the inhibition was -18.7%.
In the case of `COc1ccc(CCNC(=O)CSc2nc3nc(C)c(Cc4ccc(C)cc4)c(C)n3n2)cc1OC` it was -13.6%; in that of `Cc1ccc(C)c(OCCn2c(C3CC(=O)N(Cc4ccc(F)cc4)C3)nc3ccccc32)c1` (centres undefined), 7.35%.
The figure for `CCN(CC)CCCNc1cc(-c2ccccc2)nc(C)n1` is -6.04%; for `Cc1ccccc1CNC(=O)c1nn(-c2ccccc2F)nc1CO` it is 8.1%.
In the case of `O=c1c2sccc2n(Cc2cc(=O)n3ccccc3n2)c(=O)n1-c1cc(F)ccc1F` it was -4%; in that of `COc1cccc2c1Oc1ncccc1N(C(=O)CCC(=O)NCCC(C)C)C2`, -9.43%.
Consider `COc1ccc(C(=O)Nc2ccc(-c3nnc4n3CCCCC4)cc2)cc1`, for which the inhibition is -18.7%.
Turning to `CCn1nc(-c2ccccc2)c(-c2ccccc2)c(C(=O)Nc2ccc(S(N)(=O)=O)cc2)c1=O`, the inhibition was determined as 6.04%.
In the case of `COc1cc(OC)cc(C(=O)Nc2cc(-c3nc4ccccc4[nH]3)ccc2C)c1` it was -5.83%; in that of `COC(=O)c1c(SC)nc2ccccc2c1OCc1ccc(Br)cc1`, -1.49%.
`CCOC(=O)C1CCCN(c2nc3c(S(=O)(=O)c4ccc(Br)cc4)nnn3c3ccsc23)C1` (centres undefined): the inhibition was -4.5%.
In the case of `Cc1cccc(-c2noc(-c3ccc(NCc4ccco4)c([N+](=O)[O-])c3)n2)c1` it was -12%; in that of `O=C(c1ccco1)N1CCN(c2nc3c(F)cc(F)cc3s2)CC1`, -2.77%; in that of `CCC(=O)N1c2ccccc2CC1C(=O)NCc1cccc(OC)c1OC` (centres undefined), -10.8%.
The figure for `COc1cccc(-c2ccc(-c3noc(-c4ccccc4Br)n3)c(OC)n2)c1` is 2.37%; for `Cc1ccc2nc(COc3ccccc3NC(=O)c3ccccc3C)cc(=O)n2c1` it is 8.26%.
In the case of `COc1ccc(-c2nnc(SCC(=O)Nc3cc(OC)ccc3OC)nc2-c2ccc(OC)cc2)cc1` it was 22.3%.
Turning to `O=S(=O)(c1ccc(Cl)cc1)c1nc(-c2cccc(Br)c2)oc1NCc1ccccc1`, the inhibition was 3.81%.
In the case of `COc1ccc(CCn2c(=O)c3cccnc3n(CC(=O)Nc3c(C)cccc3C)c2=O)cc1OC` it was 1.96%.
Turning to `CCc1cccc(C)c1NC(=O)Cn1c(=O)n(-c2ccc(C)cc2)c(=O)c2c1cnn2C`, the inhibition was determined as 2.23%.
Turning to `COc1ccc(OC)c(NC(=O)c2ccc3c(SCC(=O)O)c4c(nc3c2)CCCC4)c1`, the inhibition was -3.59%.
In the case of `N#Cc1ccccc1NC(=O)C(=O)NCCc1csc(-c2ccc(C(F)(F)F)cc2)n1` it was 17.9%; in that of `Cc1ccc(Nc2nnc(SCC(=O)NC3CCS(=O)(=O)C3)s2)c(C)c1` (centres undefined), active: 38.8%; in that of `O=C1CSC2(C(=O)N(Cc3ccccc3)c3ccccc32)N1c1cccc(F)c1` (centres undefined), -3.17%.
The figure for `COc1cccc(NC(=O)CN(C)C(=O)CC(NC(=O)c2ccccc2Cl)c2ccccc2)c1` (centres undefined) is active: 31.6%; for `CCc1ccc(NC(=O)COC(=O)CCCC2=NS(=O)(=O)c3ccccc3N2)cc1` it is -11.9%.
As to `CCOc1ccc(CCNC(=O)C2CCN(Cc3nc(-c4ccc(OC)c(OC)c4)oc3C)CC2)cc1OCC`, the inhibition was 20.2%.
In the case of `COc1ccc(-n2c(/C=C/c3cccc(C(F)(F)F)c3)nc3ccccc3c2=O)cc1Cl`, the inhibition was found to be 5.69%.
The figure for `CCOc1ccccc1NC(=O)C1CCN(S(=O)(=O)c2ccc3[nH]c(=O)ccc3c2)CC1` is -4.47%.
The figure for `COc1cc(-c2nc(-c3ccc4c(c3)[nH]c(=O)n4C)no2)cc(OC)c1OC` is 24.9%.
In the case of `CC(C(=O)Nc1cccc(S(=O)(=O)N2CCOCC2)c1)N1CCN(C/C=C/c2ccccc2)CC1` (centres undefined) it was active: 79.9%.
On to `Cc1ccn2c(=O)cc(COc3ccc(NC(=O)COc4ccccc4)cc3)nc2c1`, for which the inhibition was 7.12%.
In the case of `Cc1ccc(S(=O)(=O)N2CCN(Cc3cc(Br)ccc3O)CC2)cc1` it was -0.256%; in that of `CCC(=O)N1CCc2cc(Br)cc(S(=O)(=O)N3CCCC(C(=O)NCc4ccc(F)cc4)C3)c21` (centres undefined), 10.1%.
As to `Cn1cc(S(=O)(=O)N2CCCCCC2)cc1C(=O)N1CCN(c2cccc(C(F)(F)F)c2)CC1`, the inhibition was -23.6%.
On to `COc1cc(CN2CCN(c3ncccn3)CC2)cc(OC)c1`, for which the inhibition was active: 86.7%.
In the case of `Cc1cccc(C(=O)Nc2nc3nc(-c4ccccc4)cc(=O)n3[nH]2)c1` it was -2.73%.
In the case of `CCSc1ncc(Cl)c(C(=O)Nc2ccc(S(=O)(=O)Nc3ncccn3)cc2)n1`, the inhibition was determined as 4.42%.
The figure for `COc1cccc(CNC(=O)CCCn2ncn3c(cc4occc43)c2=O)c1OC` is -10.1%; for `Cn1c(=O)n(C)c2cc(N3CCOCC3)c(NC(=O)c3ccc(Cl)cc3)cc21` it is -3.52%; for `O=C(NCc1ccc2c(c1)CCN2C(=O)c1ccncc1)c1ccccc1Cl` it is 17.1%.
In the case of `Cn1c(=O)c2c(nc(CN3CCN(c4ccccc4F)CC3)n2Cc2ccccc2F)n(C)c1=O` it was 6.8%; in that of `COc1ccc(OC)c(CCNC(=O)c2cc3cccc4c3n2CC(C)S4)c1` (centres undefined), 8.45%.
`Cn1c2ccccc2c2c(C(=O)N3CCN(c4cccc(Cl)c4)CC3)cn(C3CCCCC3)c(=O)c21`: the inhibition was -2.19%.
In the case of `COc1ccccc1CCNC(=O)C(=O)NCC(c1ccco1)S(=O)(=O)c1ccc(F)cc1` (centres undefined), the inhibition is -20%.
Turning to `COc1cccc(N2CCN(C(=O)C3CCCN(S(=O)(=O)c4ccc5c(c4)oc(=O)n5C)C3)CC2)c1` (centres undefined), the inhibition was determined as 10.6%.
In the case of `O=C1C(=O)N(C2CCN(S(=O)(=O)c3ccccc3)CC2)CCN1Cc1ccccc1` it was -13.9%; in that of `CC(C)(C)OC(=O)N1CCC(c2c(C(=O)Nc3ccc4c(c3)OCCO4)cnn2-c2ccc(F)cc2F)CC1`, 8.57%.
In the case of `COc1ccc(N2CC(NC(=O)COc3ccc(F)cc3)CC2=O)cc1OC` (centres undefined) it was 15.8%; in that of `CCOC(=O)c1c(C)[nH]c(C)c1S(=O)(=O)NCC1CCN(Cc2cccc(F)c2)CC1`, active: 73.9%.
The figure for `CCOC(=O)C(=O)NCC(c1cccnc1)N1CCN(c2ccccc2)CC1` (centres undefined) is 0.397%.
For `CCOC(=O)CC(NC(=O)c1cc2cc(Br)cc(OC)c2oc1=O)c1ccc(OC)cc1` (centres undefined), the inhibition was -2.21%.
The figure for `O=C(Nc1cccc(OCc2cc(=O)n3ccccc3n2)c1)c1ccccc1Br` is 7.62%; for `CCC1CN(C(=O)NCc2ccccc2)c2cc(Cl)ccc2O1` (centres undefined) it is -5.27%.
